# From the supplement of paper PMC11417369
# The list shows a part of the results.
# System: PfHDP1 homeodomain (GST-tagged)
# Assay: gcPBM binding intensity (ln(normalized median fluorescence intensity)); higher = stronger DNA binding
# Summary of the method: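 Using an Agilent 4 × 180k array, primer-extended double-stranded 36-bp intergenic genomic probes and negative controls were exposed for 1 h to GST-fused P. falciparum DNA-binding domains expressed in E. coli. Binding was carried out in 1× PBS with 1% milk, 0.2 mg/ml BSA, 0.5% salmon testes DNA and 0.03% Triton X-100, and protein was detected with Alexa488 anti-GST antibody and a 488 nm scan. Binding intensity is the highest Masliner-normalised natural-log median intensity across replicate spots of either probe orientation.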
row,Sequence,gcPBM binding intensity (ln)
1,AAATCCATATAGGATTGTACATATATTATATATATA [XGTACX_site8818],7.39
2,CAAAATGTTAAAGATACACACCTAACAAACACAAAA [CACACA_site4685],6.83
3,AATTCTTTACTATTCACACATATAAATATTCACTTT [CACACA_site4886],6.77
4,AAAAAAAAAAAACACACACACACAAATACATACACA [CACACA_site706],6.9
5,CAATGTATTTAGAATACATGCATATTTTCATAATGT [TGCATGCA_site221],6.24
6,AATTATGCACAAATCACACATATAAAATAAAAAGTG [CACACA_site4474],11.1
7,AAATATTTATATGTTACACACTGTTTATAATTTTCT [CACACA_site4868],6.26
8,TTAATAATTATAACATGTACATACACTAAATTTTTT [XGTACX_site8953],6.77
9,CAAATATATATTTATTGTACATATTGTTTATATGGT [XGTACX_site5246],6.94
10,CTCATCCTTACATACACACACATATATTTATTTATA [CACACA_site6202],7.51
11,AAATTATAGAATCATTGTACTTTTTTTTTTTTTTTT [XGTACX_site1280],6.19
12,ATAATAACTTGTAAGGTGCATTTTATGTTTTCTTAA,8.12
13,TATGCTTCAAAATTGTGTACATATATAATATATTAT [XGTACX_site6760],7.01
14,TACTTACCTATAATAACACACAAGAAAAAAATAAAA [CACACA_site6616],6.76
15,AAATAATATCATAAATGTACATATATCATATTATTA [XGTACX_site5372],6.29
16,TATAAAATTATGTGTACACAAATATAACTTTTCTTT [CACACA_site5554],6.49
17,CATCCAAAAATATTATGTACTAAATTTGGATGTATT [XGTACX_site3954],6.1
18,AAAATATTTCTTCTTTGTACTTATATATATTTAATT [XGTACX_site5446],6.85
19,TATTCATATTCCAAGTGTACACATAAATCCCTAATA [XGTACX_site4131],7.05
20,TTATTTAAACAAATCACACACAAATATAAATACATA [CACACA_site5158],6.71
21,AACACCAAACTAAATGTACACACATACATAAATATA [CACACA_site8298],6.59
22,AATATAAACACAAACACACACATATATATATATATA [CACACA_site4307],9.47
23,TTTTAAAACTACATTGGTACACAATAAAAAAAAAAA [XGTACX_site2793],6.57
24,TTTTAAAAAAAAAAAATAAATAAATAAGATATTATC [CACACA_negctrl_site1791],6.02
25,TCATATATATTATACACACACATATATAAATATATA [CACACA_site967],7.11
